According to PubChem BioAssay (NCI):
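Interpolation was linear, between the two tested concentrations surrounding the appropriate level; five concentrations were tested over 48 hours in 96-well plates. GI50 marks 50% less growth.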 For part of its entries the source gives two or more results. Only these are listed. There may be further records. For some assays here: Values that stand side by side repeat one measurement across runs, samples, wells, individuals or studies. A tag in brackets gives the origin of a value. Letters hold for one entry only.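 Definition used: TGI = concentration required for complete inhibition of growth.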 For some assays here: A record mostly stands for its own series of concentrations, not given here; some values may only mark the edge of a range.

Columns and labels:
Assay in all cases: NCI tumour cell line growth inhibition, 48 h
HCT-15 colon = system: HCT-15 colon
U251 CNS = system: U251 CNS
M14 melanoma = system: M14 melanoma
DU-145 prostate = system: DU-145 prostate
COLO 205 colon = system: COLO 205 colon
HCT-116 colon = system: HCT-116 colon
MDA-N = system: MDA-N
OVCAR-8 ovarian = system: OVCAR-8 ovarian
SW-620 colon = system: SW-620 colon
SK-OV-3 ovarian = system: SK-OV-3 ovarian
SK-MEL-28 melanoma = system: SK-MEL-28 melanoma
MOLT-4 leukemia = system: MOLT-4 leukemia
SF-268 CNS = system: SF-268 CNS
SNB-19 CNS = system: SNB-19 CNS
CCRF-CEM leukemia = system: CCRF-CEM leukemia
SNB-75 CNS = system: SNB-75 CNS
A498 renal = system: A498 renal
XF 498 CNS = system: XF 498 CNS
NCI-H460 lung = system: NCI-H460 lung
HOP-92 NSCLC = system: HOP-92 NSCLC
HOP-62 NSCLC = system: HOP-62 NSCLC
HT29 colon = system: HT29 colon
IGROV1 ovarian = system: IGROV1 ovarian
DLD-1 colon = system: DLD-1 colon
SF-295 CNS = system: SF-295 CNS
KM20L2 colon = system: KM20L2 colon
OVCAR-5 ovarian = system: OVCAR-5 ovarian
EKVX NSCLC = system: EKVX NSCLC
786-0 renal = system: 786-0 renal
LOX IMVI melanoma = system: LOX IMVI melanoma
UO-31 renal = system: UO-31 renal
LXFL 529 NSCLC = system: LXFL 529 NSCLC
OVCAR-3 ovarian = system: OVCAR-3 ovarian
SN12C renal = system: SN12C renal
RPMI-8226 leukemia = system: RPMI-8226 leukemia
SF-539 CNS = system: SF-539 CNS
UACC-257 melanoma = system: UACC-257 melanoma
TK-10 renal = system: TK-10 renal
SR leukemia = system: SR leukemia
A549 NSCLC = system: A549 NSCLC
DMS 114 small cell lung = system: DMS 114 small cell lung
RXF 393 renal = system: RXF 393 renal
DMS 273 small cell lung = system: DMS 273 small cell lung

Structure (SMILES): COc1cccc(C2CC(=O)c3cc(N4CCCC4)ccc3N2)c1 (stereo unspecified)
- TGI (HCT-15 colon): 2.19 µM and > 100 µM
- TGI (U251 CNS): 3.96 µM and > 100 µM
- TGI (M14 melanoma): 4.86 µM and > 100 µM
- TGI (DU-145 prostate): 830 nM and > 100 µM
- TGI (COLO 205 colon): 159 nM and > 100 µM
- TGI (HCT-116 colon): 2.87 µM and > 100 µM
- TGI (MDA-N): 23.2 nM and > 100 µM

Structure (SMILES): CCOc1ccc(/C=C\c2cc(OC)c(OC)c(OC)c2)cc1
- TGI (OVCAR-8 ovarian): 27.1 nM and > 100 µM

Structure (SMILES): COc1cc2c(cc1OC)-c1cc(OC)c(OC)cc1[C@H]1CN3CCC[C@@]3(O)C=C21
- TGI (SW-620 colon): 1.17 nM and 175 nM
- TGI (SK-OV-3 ovarian): 0.391 nM and 159 nM
- TGI (SK-MEL-28 melanoma): 0.266 nM and 107 nM
- TGI (MOLT-4 leukemia): 1.18 nM and 44.8 nM
- TGI (SF-268 CNS): 0.173 nM and 46.2 nM
- TGI (HCT-15 colon): < 0.1 nM and 13.1 µM
- TGI (SNB-19 CNS): 0.33 nM and 16.2 µM
- TGI (CCRF-CEM leukemia): 0.324 nM and 42 nM
- TGI (U251 CNS): 0.312 nM and 170 nM
- TGI (SNB-75 CNS): < 0.1 nM and 14.1 nM
- TGI (A498 renal): 0.491 nM and 351 nM
- TGI (XF 498 CNS): < 0.1 nM and 521 nM
- TGI (NCI-H460 lung): 0.47 nM and 17.7 nM
- TGI (HOP-92 NSCLC): 1.42 nM and 29.5 nM
- TGI (HOP-62 NSCLC): 0.155 nM and 176 nM
- TGI (HT29 colon): 0.724 nM and 13.8 nM
- TGI (IGROV1 ovarian): 0.885 nM and 1.25 µM
- TGI (DLD-1 colon): 1.93 nM and 41.6 nM
- TGI (SF-295 CNS): 1.34 nM and 51.7 nM
- TGI (KM20L2 colon): 0.771 nM and 1.15 µM
- TGI (OVCAR-5 ovarian): 1.45 nM and 120 nM
- TGI (EKVX NSCLC): 10.9 nM and 6.74 µM
- TGI (OVCAR-8 ovarian): 0.697 nM and 139 nM
- TGI (786-0 renal): 0.127 nM and 104 nM
- TGI (LOX IMVI melanoma): 0.108 nM and 17.8 nM
- TGI (UO-31 renal): 0.337 nM and 86.9 nM
- TGI (LXFL 529 NSCLC): < 0.1 nM and 1.14 µM
- TGI (OVCAR-3 ovarian): < 0.1 nM and 270 nM
- TGI (SN12C renal): 1.41 nM and 1.01 µM
- TGI (RPMI-8226 leukemia): 0.335 nM and 28.5 nM
- TGI (SF-539 CNS): < 0.1 nM and 418 nM
- TGI (UACC-257 melanoma): 2.16 nM and 109 nM

Structure (SMILES): CC(=O)O[C@H]1C[C@H](O[C@H]2[C@@H](O)C[C@H](O[C@H]3[C@@H](O)C[C@H](O[C@H]4CC[C@@]5(C)C(CCC6C5C[C@@H](O)[C@]5(C)[C@@H](C7=CC(=O)OC7)CC[C@]65O)C4)O[C@@H]3C)O[C@@H]2C)O[C@H](C)[C@H]1O[C@@H]1O[C@H](CO)[C@@H](O)[C@H](O)[C@H]1O (stereo partly specified)
- TGI (TK-10 renal): 52.3 nM and 761 nM

Structure (SMILES): CC(=O)c1c(-c2ccc(Cl)cc2)c(C#N)c(=S)n(C2OC(CO)C(O)C(O)C2O)c1-c1ccccc1 (stereo unspecified)
- GI50 (HCT-15 colon): 5.49 µM [sample A, mean of 2 tests] and > 100 µM [sample B, 1 test]
- GI50 (SR leukemia): 8.49 µM [sample A, mean of 2 tests] and > 100 µM [sample B, 1 test]
- GI50 (NCI-H460 lung): 7.72 µM [sample A, mean of 2 tests] and > 100 µM [sample B, 1 test]
- GI50 (HOP-92 NSCLC): > 100 µM [sample A, mean of 2 tests] and 2.41 µM [sample B, 1 test]
- GI50 (UO-31 renal): > 92 µM [sample A, mean of 2 tests] and 1.74 µM [sample B, 1 test]
- TGI (UO-31 renal): > 100 µM [sample A, mean of 2 tests] and 4.3 µM [sample B, 1 test]

Structure (SMILES): COc1cc2c(c(OC)c1OC)-c1ccc(SC)c(=O)cc1C(CC(=O)Oc1ccc(F)cc1)C2 (stereo unspecified)
- TGI (A549 NSCLC): 664 nM and > 100 µM
- TGI (SNB-75 CNS): 75 µM and 837 nM
- TGI (A498 renal): 27.2 µM and 541 nM
- TGI (DMS 114 small cell lung): 1.53 µM and 99.6 nM
- TGI (RXF 393 renal): 227 nM and > 100 µM
- TGI (OVCAR-8 ovarian): 75 µM and 851 nM
- TGI (LXFL 529 NSCLC): 7.9 µM and > 100 µM
- TGI (DMS 273 small cell lung): 1.31 µM and > 100 µM

Structure (SMILES): COc1cc2c(Nc3ccc(Cl)c(Cl)c3F)ncnc2cc1OCC1C[C@@H]2CN(C)C[C@@H]2C1 (stereo partly specified)
- GI50 (CCRF-CEM leukemia): 2.48 µM [sample A, mean of 2 tests] and 96.5 nM [sample B, mean of 2 tests] and 2.9 µM [sample C, mean of 2 tests]
